These are yes or no findings as the source states them, for the method shown. Binding seen in cells or lysates may run through a third protein. Some results given as binding are weak or reduced against the parent protein; the word gives no strength. Tags and fused reporters may be left off the sequences shown.
Tests used:
[1] = biological target: T1, Vps8ΔN-TAP (C-terminal domain of Vps8, from residue 451, C-terminal TAP tag) (yeast (genomic locus of BY4741/BY4733 strains)) (UniProt P39702); assay: co-IP; small-scale TAP purification: C-terminally TAP-tagged Vps8 or Vps3 (full-length or truncated) captured from yeast lysate (50 mM HEPES/KOH pH 7.4, 300 mM NaCl, 0.15% NP-40, 2 mM MgCl2, 1 mM DTT) on IgG beads, 1.5 h at 4°C; eluted with glycine pH 2.5 or TEV protease; Western blot with anti-Cbp, anti-HA, anti-Vps11; also with overproduced Vps8ΔN and from vps21Δ and vps21Δ ypt52Δ ypt53Δ ypt7Δ strains
T1 sequence: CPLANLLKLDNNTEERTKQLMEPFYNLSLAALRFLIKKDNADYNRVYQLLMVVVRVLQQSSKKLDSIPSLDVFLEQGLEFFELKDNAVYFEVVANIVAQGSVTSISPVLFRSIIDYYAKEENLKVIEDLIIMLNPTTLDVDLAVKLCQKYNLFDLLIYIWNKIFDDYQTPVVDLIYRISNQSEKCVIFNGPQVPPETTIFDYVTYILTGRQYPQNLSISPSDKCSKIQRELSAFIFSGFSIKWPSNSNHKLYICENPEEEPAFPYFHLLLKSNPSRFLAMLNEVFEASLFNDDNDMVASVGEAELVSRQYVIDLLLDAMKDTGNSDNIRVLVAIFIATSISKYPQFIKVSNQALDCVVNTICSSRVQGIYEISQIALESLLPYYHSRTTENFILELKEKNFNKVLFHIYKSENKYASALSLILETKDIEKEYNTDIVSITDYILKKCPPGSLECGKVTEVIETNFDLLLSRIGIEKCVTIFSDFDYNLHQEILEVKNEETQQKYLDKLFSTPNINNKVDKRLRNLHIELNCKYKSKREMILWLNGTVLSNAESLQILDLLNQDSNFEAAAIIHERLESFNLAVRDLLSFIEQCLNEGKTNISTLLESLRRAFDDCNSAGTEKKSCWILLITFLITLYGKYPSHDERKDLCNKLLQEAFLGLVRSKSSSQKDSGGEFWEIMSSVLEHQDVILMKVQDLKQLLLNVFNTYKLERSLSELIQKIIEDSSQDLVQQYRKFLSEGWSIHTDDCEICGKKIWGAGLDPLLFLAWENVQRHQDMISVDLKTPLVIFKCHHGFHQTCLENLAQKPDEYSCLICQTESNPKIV

Protein sequences, listed by entry. Tags and fused reporters are not part of them.
UniProt P12868: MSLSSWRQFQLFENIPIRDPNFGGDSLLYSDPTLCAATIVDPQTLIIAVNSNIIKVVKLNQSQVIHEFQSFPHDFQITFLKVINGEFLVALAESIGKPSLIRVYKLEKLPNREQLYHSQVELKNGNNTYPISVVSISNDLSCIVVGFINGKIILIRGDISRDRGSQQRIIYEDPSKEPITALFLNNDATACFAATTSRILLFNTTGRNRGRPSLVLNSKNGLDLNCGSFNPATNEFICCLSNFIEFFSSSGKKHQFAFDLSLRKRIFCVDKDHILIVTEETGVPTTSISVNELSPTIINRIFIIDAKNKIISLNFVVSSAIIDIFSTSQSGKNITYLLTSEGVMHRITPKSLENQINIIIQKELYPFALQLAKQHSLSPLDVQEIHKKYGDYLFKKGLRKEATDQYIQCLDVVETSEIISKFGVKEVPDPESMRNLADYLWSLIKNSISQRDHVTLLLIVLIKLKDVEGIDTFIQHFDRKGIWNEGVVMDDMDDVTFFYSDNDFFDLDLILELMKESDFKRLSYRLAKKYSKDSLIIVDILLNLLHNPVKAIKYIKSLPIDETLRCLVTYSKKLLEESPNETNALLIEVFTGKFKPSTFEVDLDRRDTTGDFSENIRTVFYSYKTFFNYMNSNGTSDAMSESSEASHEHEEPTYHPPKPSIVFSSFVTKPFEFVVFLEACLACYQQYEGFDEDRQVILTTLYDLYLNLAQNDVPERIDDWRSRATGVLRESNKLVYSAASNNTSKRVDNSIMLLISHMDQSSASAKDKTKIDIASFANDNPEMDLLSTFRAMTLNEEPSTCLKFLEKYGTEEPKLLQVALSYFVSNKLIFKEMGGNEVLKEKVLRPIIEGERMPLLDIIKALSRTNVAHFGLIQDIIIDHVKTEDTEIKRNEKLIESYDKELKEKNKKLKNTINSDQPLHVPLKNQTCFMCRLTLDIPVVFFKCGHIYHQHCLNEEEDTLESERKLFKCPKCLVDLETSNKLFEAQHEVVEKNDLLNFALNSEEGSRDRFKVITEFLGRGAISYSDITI

[2] = biological target: T2, Vps3-TAP (full-length Vps3, C-terminal TAP tag) (yeast (genomic locus of BY4741/BY4733 strains)) (UniProt P23643); assay: as above
T2 sequence: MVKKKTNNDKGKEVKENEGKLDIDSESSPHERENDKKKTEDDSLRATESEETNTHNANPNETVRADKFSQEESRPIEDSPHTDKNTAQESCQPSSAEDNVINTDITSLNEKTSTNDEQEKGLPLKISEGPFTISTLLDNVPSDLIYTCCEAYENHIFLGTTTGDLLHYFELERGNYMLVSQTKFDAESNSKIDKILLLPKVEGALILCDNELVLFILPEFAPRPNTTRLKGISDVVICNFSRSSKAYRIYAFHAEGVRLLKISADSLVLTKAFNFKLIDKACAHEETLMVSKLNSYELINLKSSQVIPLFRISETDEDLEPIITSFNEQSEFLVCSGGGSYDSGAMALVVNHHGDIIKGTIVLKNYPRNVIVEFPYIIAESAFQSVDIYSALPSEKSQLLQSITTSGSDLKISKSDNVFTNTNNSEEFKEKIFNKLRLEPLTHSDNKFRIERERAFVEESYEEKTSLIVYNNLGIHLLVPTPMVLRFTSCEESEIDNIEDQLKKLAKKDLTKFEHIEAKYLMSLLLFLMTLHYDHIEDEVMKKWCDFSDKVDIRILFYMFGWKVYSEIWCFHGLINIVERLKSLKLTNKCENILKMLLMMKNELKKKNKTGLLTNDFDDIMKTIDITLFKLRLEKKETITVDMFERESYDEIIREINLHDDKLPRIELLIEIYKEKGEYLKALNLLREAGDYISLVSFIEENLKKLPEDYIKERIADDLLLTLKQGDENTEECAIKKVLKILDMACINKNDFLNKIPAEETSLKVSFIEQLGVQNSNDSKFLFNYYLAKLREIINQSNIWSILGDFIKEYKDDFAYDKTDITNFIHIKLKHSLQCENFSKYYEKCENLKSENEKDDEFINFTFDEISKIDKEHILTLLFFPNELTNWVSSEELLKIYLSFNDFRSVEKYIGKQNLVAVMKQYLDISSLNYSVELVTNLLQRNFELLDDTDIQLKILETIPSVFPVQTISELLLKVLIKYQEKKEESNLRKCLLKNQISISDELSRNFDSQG

binding [1]: binds
binding [2]: binds
Substance: Vps11 (from UniProt P12868 1-1029)
